# From the supplement of paper PMC8728848
# This is one part of the list.
# B1: AFL (Aspergillus fumigatus), Q4WW81 (protein)
# chain: STPGAQQVLFRTGIAAVNLTNHLRVYFQDVYGSIRESLYEGSWANGTEKNVIGNAKLGSPVAATSKELKHIRVYTLTEGNTLQEFAYDSGTGWYNGGLGGAKFQVAPYSRIAAVFLAGTDALQLRIYAQKPDNTIQEYMWNGDGWKEGTNLGGALPGTGIGATSFRYTDYNGPSIRIWFQTDDLKLVQRAYDPHKGWYPDLVTIFDRAPPRTAIAATSFGAGNSSIYMRIYFVNSDNTIWQVCWDHGKGYHDKGTITPVIQGSEVAIISWGSFANNGPDLRLYFQNGTYISAVSEWVWNRAHGSQLGRSALPPA
# Key:
# Assay in all cases: glycan array binding signal (z-score within array); higher = stronger binding
# Conditions in all cases: glycan notation: IUPAC condensed, linker removed
# [1] = target: Fuc(a1-2)[Gal(a1-3)]Gal(b1-4)Glc
# Outline: (§1)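 Arrays were curated from the Consortium for Functional Glycomics database, 3228 in total, and kept only where the protein sequence was available. Binding is expressed as a within-array Z-score. This score was averaged across arrays of the same protein sequence at different concentrations or buffers and across linkers, and negative values can be read as non-binding.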
# [2] = target: Fuc(a1-2)[Gal(a1-3)]Gal(b1-4)GlcNAc
# Outline: as §1
# [3] = target: Fuc(a1-2)[Gal(a1-3)]Gal(b1-4)GlcNAc(b1-2)Man(a1-3)[Fuc(a1-2)[Gal(a1-3)]Gal(b1-4)GlcNAc(b1-2)Man(a1-6)]Man(b1-4)GlcNAc(b1-4)GlcNAc
# Outline: as §1
# [4] = target: Fuc(a1-2)[Gal(a1-3)]Gal(b1-4)GlcNAc(b1-2)Man(a1-3)[Fuc(a1-2)[Gal(a1-3)]Gal(b1-4)GlcNAc(b1-2)Man(a1-6)]Man(b1-4)GlcNAc(b1-4)[Fuc(a1-6)]GlcNAc
# Outline: as §1
# [5] = target: Fuc(a1-2)[Gal(a1-3)]Gal(b1-4)GlcNAc(b1-3)GalNAc
# Outline: as §1
# [6] = target: Fuc(a1-2)[Gal(a1-3)]Gal(b1-4)[Fuc(a1-3)]Glc
# Outline: as §1
# [7] = target: Fuc(a1-2)[Gal(a1-3)]Gal(b1-4)[Fuc(a1-3)]GlcNAc
# Outline: as §1
# [8] = target: Fuc(a1-2)[Gal(a1-3)]Gal(b1-4)[Fuc(a1-3)]GlcNAc(b1-3)GalNAc
# Outline: as §1
# [9] = target: Fuc(a1-2)[Gal(a1-4)]Gal(b1-4)GlcNAc
# Outline: as §1
# [10] = target: Fuc(a1-2)[GalNAc(a1-3)]Gal
# Outline: as §1
# [11] = target: Fuc(a1-2)[GalNAc(a1-3)]Gal(b1-3)GalNAc(a1-3)[Fuc(a1-2)]Gal(b1-4)GlcNAc
# Outline: as §1
# [12] = target: Fuc(a1-2)[GalNAc(a1-3)]Gal(b1-3)GlcNAc
# Outline: as §1
# [13] = target: Fuc(a1-2)[GalNAc(a1-3)]Gal(b1-3)GlcNAc(b1-2)Man(a1-3)[Fuc(a1-2)[GalNAc(a1-3)]Gal(b1-3)GlcNAc(b1-2)Man(a1-6)]Man(b1-4)GlcNAc(b1-4)GlcNAc
# Outline: as §1
# [14] = target: Fuc(a1-2)[GalNAc(a1-3)]Gal(b1-3)GlcNAc(b1-2)Man(a1-3)[Fuc(a1-2)[GalNAc(a1-3)]Gal(b1-3)GlcNAc(b1-2)Man(a1-6)]Man(b1-4)GlcNAc(b1-4)[Fuc(a1-6)]GlcNAc
# Outline: as §1
# [15] = target: Fuc(a1-2)[GalNAc(a1-3)]Gal(b1-3)GlcNAc(b1-3)GalNAc
# Outline: as §1
# [16] = target: Fuc(a1-2)[GalNAc(a1-3)]Gal(b1-4)Glc
# Outline: as §1
# [17] = target: Fuc(a1-2)[GalNAc(a1-3)]Gal(b1-4)GlcNAc
# Outline: as §1
# [18] = target: Fuc(a1-2)[GalNAc(a1-3)]Gal(b1-4)GlcNAc(b1-2)Man(a1-3)[Fuc(a1-2)[GalNAc(a1-3)]Gal(b1-4)GlcNAc(b1-2)Man(a1-6)]Man(b1-4)GlcNAc(b1-4)GlcNAc
# Outline: as §1
# [19] = target: Fuc(a1-2)[GalNAc(a1-3)]Gal(b1-4)GlcNAc(b1-2)Man(a1-3)[Fuc(a1-2)[GalNAc(a1-3)]Gal(b1-4)GlcNAc(b1-2)Man(a1-6)]Man(b1-4)GlcNAc(b1-4)[Fuc(a1-6)]GlcNAc
# Outline: as §1
# [20] = target: Fuc(a1-2)[GalNAc(a1-3)]Gal(b1-4)GlcNAc(b1-3)Gal(b1-4)GlcNAc
# Outline: as §1
# [21] = target: Fuc(a1-2)[GalNAc(a1-3)]Gal(b1-4)GlcNAc(b1-3)Gal(b1-4)GlcNAc(b1-3)Gal(b1-4)GlcNAc
# Outline: as §1
# [22] = target: Fuc(a1-2)[GalNAc(a1-3)]Gal(b1-4)GlcNAc(b1-3)GalNAc
# Outline: as §1
# [23] = target: Fuc(a1-2)[GalNAc(a1-3)]Gal(b1-4)[Fuc(a1-3)]GlcNAc
# Outline: as §1
# [24] = target: Fuc(a1-2)[GalNAc(a1-3)]Gal(b1-4)[Fuc(a1-3)]GlcNAc(b1-3)GalNAc
# Outline: as §1
# [25] = target: Fuc(a1-2)[GalNAc(a1-4)]Gal(b1-4)GlcNAc
# Outline: as §1
# [26] = target: Fuc(a1-2)[GalNAc(b1-3)]Gal
# Outline: as §1
# Fuc(a1-3)GlcNAc = target: Fuc(a1-3)GlcNAc
# Outline: as §1
# [27] = target: Fuc(a1-3)[Gal(b1-4)]Glc6S
# Outline: as §1
# [28] = target: Fuc(a1-3)[Gal(b1-4)]GlcNAc
# Outline: as §1
# [29] = target: Fuc(a1-3)[Gal(b1-4)]GlcNAc(b1-2)Man(a1-3)[Fuc(a1-3)[Gal(b1-4)]GlcNAc(b1-2)Man(a1-6)]Man(b1-4)GlcNAc(b1-4)GlcNAc
# Outline: as §1
# [30] = target: Fuc(a1-3)[Gal(b1-4)]GlcNAc(b1-2)Man(a1-3)[Fuc(a1-3)[Gal(b1-4)]GlcNAc(b1-2)Man(a1-6)]Man(b1-4)GlcNAc(b1-4)[Fuc(a1-6)]GlcNAc
# Outline: as §1
# [31] = target: Fuc(a1-3)[Gal(b1-4)]GlcNAc(b1-3)Gal(b1-3)[Fuc(a1-4)]GlcNAc
# Outline: as §1
# [32] = target: Fuc(a1-3)[Gal(b1-4)]GlcNAc(b1-3)GalNAc
# Outline: as §1
# [33] = target: Fuc(a1-3)[Gal(b1-4)]GlcNAc(b1-4)Gal(b1-4)[Fuc(a1-3)]GlcNAc
# Outline: as §1
# [34] = target: Fuc(a1-3)[Gal(b1-4)]GlcNAc(b1-4)Gal(b1-4)[Fuc(a1-3)]GlcNAc(b1-4)Gal(b1-4)[Fuc(a1-3)]GlcNAc
# Outline: as §1
# [35] = target: Fuc(a1-3)[Gal(b1-4)]GlcNAc(b1-6)GalNAc
# Outline: as §1
# [36] = target: Fuc(a1-3)[Gal(b1-4)]GlcNAc(b1-6)[Gal(b1-3)GlcNAc(b1-3)]Gal(b1-4)Glc
# Outline: as §1
# [37] = target: Fuc(a1-3)[Gal(b1-4)]GlcNAc(b1-6)[Neu5Ac(a2-3)Gal(b1-3)]GalNAc
# Outline: as §1
# [38] = target: Fuc(a1-3)[Gal(b1-4)]GlcNAc6S
# Outline: as §1
# [39] = target: Fuc(a1-3)[Gal3S(b1-4)]GlcNAc
# Outline: as §1
# [40] = target: Fuc(a1-3)[Gal3S(b1-4)]GlcNAc6S
# Outline: as §1
# [41] = target: Fuc(a1-3)[GalNAc(b1-4)]GlcNAc
# Outline: as §1
# Fuc(a1-4)GlcNAc = target: Fuc(a1-4)GlcNAc
# Outline: as §1
# Fuc(b1-3)GlcNAc = target: Fuc(b1-3)GlcNAc
# Outline: as §1
# Gal(a1-2)Gal = target: Gal(a1-2)Gal
# Outline: as §1
binder,measurement,setting,value
B1,glycan array binding signal (z-score),[1],-0.359
same,glycan array binding signal (z-score),[2],-0.352
same,glycan array binding signal (z-score),[3],-0.36
same,glycan array binding signal (z-score),[4],0.309
same,glycan array binding signal (z-score),[5],-0.378
same,glycan array binding signal (z-score),[6],0.164
same,glycan array binding signal (z-score),[7],-0.13
same,glycan array binding signal (z-score),[8],-0.31
same,glycan array binding signal (z-score),[9],2.51
same,glycan array binding signal (z-score),[10],1.73
same,glycan array binding signal (z-score),[11],-0.388
same,glycan array binding signal (z-score),[12],-0.384
same,glycan array binding signal (z-score),[13],-0.374
same,glycan array binding signal (z-score),[14],0.059
same,glycan array binding signal (z-score),[15],-0.38
same,glycan array binding signal (z-score),[16],-0.369
same,glycan array binding signal (z-score),[17],-0.359
same,glycan array binding signal (z-score),[18],-0.338
same,glycan array binding signal (z-score),[19],0.018
same,glycan array binding signal (z-score),[20],-0.349
same,glycan array binding signal (z-score),[21],-0.378
same,glycan array binding signal (z-score),[22],-0.39
same,glycan array binding signal (z-score),[23],-0.336
same,glycan array binding signal (z-score),[24],-0.375
same,glycan array binding signal (z-score),[25],2.88
same,glycan array binding signal (z-score),[26],-0.165
same,glycan array binding signal (z-score),Fuc(a1-3)GlcNAc,3.8
same,glycan array binding signal (z-score),[27],-0.189
same,glycan array binding signal (z-score),[28],1.04
same,glycan array binding signal (z-score),[29],1.14
same,glycan array binding signal (z-score),[30],-0.278
same,glycan array binding signal (z-score),[31],1.55
same,glycan array binding signal (z-score),[32],-0.002
same,glycan array binding signal (z-score),[33],1.54
same,glycan array binding signal (z-score),[34],2.98
same,glycan array binding signal (z-score),[35],-0.368
same,glycan array binding signal (z-score),[36],0.549
same,glycan array binding signal (z-score),[37],-0.345
same,glycan array binding signal (z-score),[38],1.12
same,glycan array binding signal (z-score),[39],0.994
same,glycan array binding signal (z-score),[40],1.17
same,glycan array binding signal (z-score),[41],1.14
same,glycan array binding signal (z-score),Fuc(a1-4)GlcNAc,3.56
same,glycan array binding signal (z-score),Fuc(b1-3)GlcNAc,2.98
same,glycan array binding signal (z-score),Gal(a1-2)Gal,-0.372
